Laboratory results from PubChem BioAssay AID2147 (National Center for Advancing Translational Sciences (NCATS), 2009).
The campaign covered roughly 230,000 compounds. About 3,600 (1.6%) were called active. Inconclusive results, whose numbers are uncertain, are shown with a selection of clear calls. The call rests on the fitted dose curve; in most records, active means well fitted inhibition curve with a large enough effect (not every such curve was filed as active); inconclusive means small, poorly fitted or top-dose-only effect, or another doubt; inactive means no such curve, though single readings can be large or run the other way. Potencies beside an inconclusive call are fits to weak or partial responses and may not hold up.

These compounds were tested against Lysine-specific demethylase 4E (Homo sapiens) (UniProt B2RXH2) (assay: qHTS Assay for Inhibitors of Human Jumonji Domain Containing 2E (JMJD2E)). Conditions: JMJD2E catalytic domain, FDH-coupled NADH fluorescence (FDH is formaldehyde dehydrogenase); series mostly up to 57.1 µM.
Chain of UniProt B2RXH2 (B2RXH2 whole entry, looked up, the tested form may be a part): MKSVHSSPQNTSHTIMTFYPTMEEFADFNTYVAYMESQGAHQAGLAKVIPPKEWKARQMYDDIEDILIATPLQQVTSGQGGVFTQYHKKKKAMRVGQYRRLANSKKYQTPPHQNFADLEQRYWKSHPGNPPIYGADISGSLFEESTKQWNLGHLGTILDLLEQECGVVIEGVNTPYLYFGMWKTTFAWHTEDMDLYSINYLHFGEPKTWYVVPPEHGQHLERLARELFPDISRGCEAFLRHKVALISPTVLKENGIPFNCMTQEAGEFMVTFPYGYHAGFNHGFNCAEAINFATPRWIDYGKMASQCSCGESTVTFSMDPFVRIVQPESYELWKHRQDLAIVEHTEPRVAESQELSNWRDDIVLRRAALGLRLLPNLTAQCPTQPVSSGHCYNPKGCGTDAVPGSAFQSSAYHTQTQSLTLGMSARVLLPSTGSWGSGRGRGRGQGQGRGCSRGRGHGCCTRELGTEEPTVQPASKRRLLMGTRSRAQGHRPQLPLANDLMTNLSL
Further: nearly all actives have a fitted effect of over 50% in size.
Potency means the concentration at half of the fitted maximal effect; tags describe the fitted curve by direction and shape.

Structure (SMILES)	Potency
Cc1cccc(NC(=O)c2cc(NC(=O)c3ccccc3)ccc2N2CCCCC2)c1	inconclusive: 8.91 µM [inhibitor, single point]
CCOC(=O)c1cnc2ccc(C)cc2c1Sc1ccc(F)cc1	inconclusive: 15.8 µM [inhibitor, single point]
Cc1ccc(Nc2nc(-c3sc(NC(=O)c4ccco4)nc3C)cs2)cc1	inactive
CC(C)(C)C1CCC(=NNc2nc3ccccc3[nH]2)CC1 (stereo not given)	inconclusive: 35.5 µM [inhibitor, partial curve]
C=CCNC(=O)Cn1nc(-c2ccccc2)ccc1=O	inconclusive: 39.8 µM [inhibitor, single point]
Cc1ccc(-c2ccccc2NC(=O)C2C3C=CC(C3)C2C(=O)O)o1 (stereo not given)	inconclusive: 20 µM [inhibitor, partial curve]
CCOc1cc(/C=C2\CCCC(C(=O)C(F)(F)F)=C2O)ccc1O	inconclusive: 39.8 µM [inhibitor, single point]
CCCCn1c(=O)[nH]c(=O)c2c1nc(-c1ccc(OCCC)c(OCC)c1)n2CCOC	inconclusive: 0.794 µM [inhibitor, full curve]
Cc1ccc(C)c(OCC(O)CN2CCC(CN3C(=O)c4cccc5cccc(c45)C3=O)CC2)c1 (stereo not given)	inconclusive: 11.2 µM [inhibitor, partial curve]
CC1=NN(c2nc(-c3ccccc3)cs2)C(=O)C1	inactive
Cc1ncc(CO)c(/C=N/NC(=S)Nc2ccc(C(C)C)cc2)c1O	inconclusive: 31.6 µM [inhibitor, partial curve]
COc1ccc(N(C(=O)c2cccnc2)S(=O)(=O)c2ccc3c4c(cccc24)C(=O)N3C)cc1	inconclusive: 31.6 µM [inhibitor, single point]
COc1ccc(CNc2oc(-c3ccccc3)nc2C#N)cc1	inconclusive: 28.2 µM [inhibitor, partial curve]
COc1ccc(OC)c(/C=N/c2oc(-c3ccco3)c(-c3ccco3)c2C#N)c1	inconclusive: 25.1 µM [inhibitor, partial curve]
CC1(C)Oc2ccc3ccc(=O)oc3c2/C(=C/Nc2ccccc2)C1=O	inactive
COc1cc(OC)cc(C(=O)/C=C2\Sc3ccccc3N2C)c1	inconclusive: 25.1 µM [inhibitor, partial curve]
Cc1ccc(S(=O)(=O)NN2C(=O)c3ccccc3NC2c2ccccc2O)cc1 (stereo not given)	inconclusive: 28.2 µM [inhibitor, partial curve]
O=C(c1ccc(CNc2c(N3CCOCC3)c(=O)c2=O)cc1)N1CC=C(c2ccccc2)CC1	inactive
Cc1sc2nc3c(C(=O)N4CCCC4)cc(C(=O)c4ccccc4O)cn3c(=O)c2c1C	inconclusive: 39.8 µM [inhibitor, single point]
Cn1c(N)c(C(=O)COC(=O)c2cncc(Br)c2)c(=O)n(C)c1=O	inactive
Cc1nc(Nc2ccc(Cl)cc2Cl)sc1C(=O)Nc1ccccc1	inconclusive: 39.8 µM [inhibitor, single point]
CSc1ccc(N=Nc2c(C)[nH]n(C)c2=O)cc1	inactive
COc1cccc(/C=C/C(=O)OCC(=O)Nc2ccc(Cl)c(S(=O)(=O)N(C)C)c2)c1	inconclusive: 11.2 µM [inhibitor, partial curve]
O=C(CSc1nnc(-c2cccs2)n1Cc1ccccc1)N1CCc2ccccc2C1	inconclusive: 39.8 µM [inhibitor, single point]

Structure (SMILES)	Potency
Cc1ccc(/C=C/C(=O)Nc2cc(S(N)(=O)=O)ccc2O)cc1	inactive
O=c1c2ccccc2nc2sc3ccccc3n12	inconclusive: 35.5 µM [inhibitor, single point]
COc1ccc(C2CC(c3ccccc3)=NN2C(=O)COC(=O)COc2ccccc2)cc1 (stereo not given)	inconclusive: 35.5 µM [inhibitor, single point]
O=C(Nc1ccc2nc(-c3cccnc3)[nH]c2c1)C1CCCCC1	inconclusive: 28.2 µM [inhibitor, partial curve]
CC(C)(C)C(=O)COC(=O)c1c2c(nc3ccccc13)CCC2	inconclusive: 39.8 µM [inhibitor, single point]
COc1ccc(NC(C)c2cc(Cl)ccc2O)cc1 (stereo not given)	inconclusive: 6.31 µM [inhibitor, partial curve]
COc1ccc(-n2c(O)c(/C=N/NS(=O)(=O)c3ccc(C)c([N+](=O)[O-])c3)c3ccccc3c2=O)cc1OC	inconclusive: 0.631 µM [inhibitor, full curve]
N=c1n(CCN2CCCCC2)c2ccccc2n1CC(=O)c1ccc(Cl)c(Cl)c1	inconclusive: 39.8 µM [inhibitor, single point]
CNC(=O)C1C(=S)NC(N)=C(C#N)C1c1ccccc1 (stereo not given)	inconclusive: 3.98 µM [inhibitor, full curve, poor fit]
COC(=O)C1=C(C)NC(C)=C([N+](=O)[O-])[C@H]1c1ccccc1C(F)(F)F	inactive
COc1ccc(-n2c(N)c(C(=O)NCc3ccco3)c3nc4ccccc4nc32)cc1OC	inconclusive: 3.98 µM [inhibitor, full curve]
CCCc1nc2sc3c(c2c(=O)n1NC(=O)c1ccco1)CC(C)(C)OC3	inactive
O=C(O)CNS(=O)(=O)c1ccc2c(c1)CCCC2	inconclusive: 39.8 µM [inhibitor, single point]
CCCCSCc1[nH]c(=O)[nH]c1C(=O)CCCCC(=O)OCC	inactive
COc1cc(Cl)cc(/C=C/c2ccc3ccccc3n2)c1OC(C)=O	inactive
Cc1ccc2ncnc(Nc3ccccc3)c2c1	inconclusive: 35.5 µM [inhibitor, single point]
O=C(/C=C/c1ccc2c(c1)OCO2)NCc1cn2cc(Cl)ccc2n1	inconclusive: 22.4 µM [inhibitor, partial curve]
CN(C)c1ccc(C=NCC2(O)CCOC(C)(C)C2)cc1 (stereo not given)	inactive
COc1cccc(/C=N/NC(=O)c2cc(-c3cccn3C)n[nH]2)c1O	active: 15.8 µM
Cc1cc(NS(=O)(=O)c2ccc(NC(=O)c3cc4c(=O)n5ccccc5nc4s3)cc2)nc(C)n1	inconclusive: 12.6 µM [inhibitor, partial curve]
COc1ccc(OC)c(Nc2nc3nonc3nc2N2CCCC(C)C2)c1 (stereo not given)	inactive
COc1cccc(C2C(=O)c3ccccc3C2=O)c1	inactive
Cc1ccc(CSCCNC(=O)CN(c2ccccc2)S(C)(=O)=O)cc1	inconclusive: 39.8 µM [inhibitor, single point]
CCNc1nc(NC(C)C)nc(N(C#N)CCOc2ccc(Cl)cc2Cl)n1	inconclusive: 28.2 µM [inhibitor, single point]

Structure (SMILES)	Potency
CCOc1ccc(OCc2ccc(C(=O)O)o2)cc1	inactive
Cc1nc(N2CCN(Cc3ccccc3)CC2)nc2c1C(=O)CC(c1ccco1)C2 (stereo not given)	inconclusive: 39.8 µM [inhibitor, single point]
CC1(CC(=O)N/N=C/c2cc([N+](=O)[O-])c(O)cc2O)OCCO1	active: 15.8 µM
CC(C)N1CCC2(CC1)Oc1ccc(Br)cc1C1CC(c3cccnc3)=NN12 (stereo not given)	inconclusive: 39.8 µM [inhibitor, single point]
CCCCOP(=O)(c1ccc(N(C)C)cc1)C(O)c1ccncc1 (stereo not given)	active: 22.4 µM
O=c1ccc2[n+]([O-])c3ccc(O)cc3oc-2c1	inconclusive: 28.2 µM [inhibitor, single point]
O=C(Cn1c(-c2ccccn2)nc2ccccc21)NCCN1CCOCC1	inconclusive: 31.6 µM [inhibitor, partial curve]
O=C(Nc1cccc(S(=O)(=O)NC2=NCCCCC2)c1)c1cc(-c2ccco2)nc2ccccc12	inconclusive: 31.6 µM [inhibitor, partial curve]
CCN1CCCc2cc(CN(CCN3CCOCC3)C(=S)Nc3ccc(OC)c(OC)c3)ccc21	inactive
O=C(N/N=C/c1ccccc1O)C1(O)c2ccccc2-c2ccccc21	inconclusive: 14.1 µM [inhibitor, partial curve]
CCCCNCCOCCOc1ccc(C)cc1Br	inconclusive: 31.6 µM [inhibitor, single point]
CC1=NN2C(=N)/C(=C\c3ccc(SCc4ccccc4)o3)C(=O)N=C2S1	inactive
CC1=CC=CN2C1=NC(=O)CC2(C)C(=O)N(CC(=O)NC1CCCC1)c1ccccc1C (stereo not given)	inconclusive: 22.4 µM [inhibitor, partial curve]
CCOC(=O)N1CCN(C(=O)CSc2ccc3nnc(CCNC(=O)c4ccccc4)n3n2)CC1	inconclusive: 35.5 µM [inhibitor, single point]
CSc1nc(-c2ccccc2)nc(N2CCOCC2)c1C(C)=O	inactive
CN(C)CCCn1c(N)c(C#N)c2nc(C#N)c(C#N)nc21	inconclusive: 28.2 µM [inhibitor, partial curve]
CC1N(C)c2cccc3cccc(c23)N1C	inconclusive: 31.6 µM [inhibitor, partial curve]
NC(=O)CCCCn1ccc(NC(N)=NCC(F)(F)F)n1	inconclusive: 39.8 µM [inhibitor, single point]
COCCOC(=O)C1=C(C)NC2=C(C(=O)CC(C)(C)C2)C1c1cccnc1 (stereo not given)	inconclusive: 12.6 µM [inhibitor, partial curve]
O=C1CN(C(=O)CNC(=O)c2ccccc2Cl)c2ccccc2N1	inactive
CC(C)(C)c1cc(=O)n(-c2ccccc2)[nH]1	inactive
CC(C)Cn1c(=O)c2ccccc2n2c(SCC(=O)N3c4ccccc4CC3C)nnc12 (stereo not given)	inactive
